# Measurements from article PMC9911399, “Two distinct binding modes provide the RNA-binding protein RbFox with extraordinary sequence specificity”.
# Changes are numbered by the printed parent chain; changes in the protein carry UniProt numbers. The list shows a part of the results.
# B1: AGACUAC (DNA:RNA)
# RNA: GGGAGACCGGAAUUCAGAUUGUCCAGACUACUUAAAUCCCGUCGUAGCCACCA
# DNA 1: CAATCTGAATTCCGGTCTCCC
# DNA 2: TGGTGGCTACGACGGGATT
# B2: AAAAAUA (DNA:RNA)
# RNA: B1 RNA with G26A, C28A, U29A, A30U, C31A
# DNA 1: CAATCTGAATTCCGGTCTCCC
# DNA 2: TGGTGGCTACGACGGGATT
# B3: GUCAUAU (DNA:RNA)
# RNA: B1 RNA with A25G, G26U, A27C, C28A, C31U
# DNA 1: CAATCTGAATTCCGGTCTCCC
# DNA 2: TGGTGGCTACGACGGGATT
# B4: CCCAGUG (DNA:RNA)
# RNA: GGGAGACCGGAAUUCAGAUUGUCCCCCAGUGUUAAAUCCCGUCGUAGCCACCA
# DNA 1: CAATCTGAATTCCGGTCTCCC
# DNA 2: TGGTGGCTACGACGGGATT
# B5: CUGAGUC (DNA:RNA)
# RNA: B4 RNA with C26U, C27G, G31C
# DNA 1: CAATCTGAATTCCGGTCTCCC
# DNA 2: TGGTGGCTACGACGGGATT
# B6: CGCCGAC (DNA:RNA)
# RNA: B1 RNA with A25C, A27C, U29G
# DNA 1: CAATCTGAATTCCGGTCTCCC
# DNA 2: TGGTGGCTACGACGGGATT
# B7: AAGCGAC (DNA:RNA)
# RNA: B1 RNA with G26A, A27G, U29G
# DNA 1: CAATCTGAATTCCGGTCTCCC
# DNA 2: TGGTGGCTACGACGGGATT
# B8: UUUAGUC (DNA:RNA)
# RNA: B4 RNA with C25U, C26U, C27U, G31C
# DNA 1: CAATCTGAATTCCGGTCTCCC
# DNA 2: TGGTGGCTACGACGGGATT
# B9: CGAAGAG (DNA:RNA)
# RNA: B4 RNA with C26G, C27A, U30A
# DNA 1: CAATCTGAATTCCGGTCTCCC
# DNA 2: TGGTGGCTACGACGGGATT
# B10: CUGUGGU (DNA:RNA)
# RNA: B4 RNA with C26U, C27G, A28U, U30G, G31U
# DNA 1: CAATCTGAATTCCGGTCTCCC
# DNA 2: TGGTGGCTACGACGGGATT
# B11: CACGCCG (DNA:RNA)
# RNA: B4 RNA with C26A, A28G, G29C, U30C
# DNA 1: CAATCTGAATTCCGGTCTCCC
# DNA 2: TGGTGGCTACGACGGGATT
# B12: UCUGUCG (DNA:RNA)
# RNA: B4 RNA with C25U, C27U, A28G, G29U, U30C
# DNA 1: CAATCTGAATTCCGGTCTCCC
# DNA 2: TGGTGGCTACGACGGGATT
# B13: GCUGUAC (DNA:RNA)
# RNA: B1 RNA with A25G, G26C, A27U, C28G
# DNA 1: CAATCTGAATTCCGGTCTCCC
# DNA 2: TGGTGGCTACGACGGGATT
# B14: CCCCGCG (DNA:RNA)
# RNA: B4 RNA with A28C, U30C
# DNA 1: CAATCTGAATTCCGGTCTCCC
# DNA 2: TGGTGGCTACGACGGGATT
# B15: CUGCAUG (DNA:RNA)
# RNA: B4 RNA with C26U, C27G, A28C, G29A
# DNA 1: CAATCTGAATTCCGGTCTCCC
# DNA 2: TGGTGGCTACGACGGGATT
# B16: CCUAAAA (DNA:RNA)
# RNA: B4 RNA with C27U, G29A, U30A, G31A
# DNA 1: CAATCTGAATTCCGGTCTCCC
# DNA 2: TGGTGGCTACGACGGGATT
# B17: GCGGCCC (DNA:RNA)
# RNA: B1 RNA with A25G, G26C, A27G, C28G, U29C, A30C
# DNA 1: CAATCTGAATTCCGGTCTCCC
# DNA 2: TGGTGGCTACGACGGGATT
# B18: AUACGGU (DNA:RNA)
# RNA: B1 RNA with G26U, U29G, A30G, C31U
# DNA 1: CAATCTGAATTCCGGTCTCCC
# DNA 2: TGGTGGCTACGACGGGATT
# B19: GCAAAAC (DNA:RNA)
# RNA: B1 RNA with A25G, G26C, C28A, U29A
# DNA 1: CAATCTGAATTCCGGTCTCCC
# DNA 2: TGGTGGCTACGACGGGATT
# B20: GAUACCU (DNA:RNA)
# RNA: B4 RNA with C25G, C26A, C27U, G29C, U30C, G31U
# DNA 1: CAATCTGAATTCCGGTCTCCC
# DNA 2: TGGTGGCTACGACGGGATT
# B21: UAGCAUU (DNA:RNA)
# RNA: B1 RNA with A25U, G26A, A27G, U29A, A30U, C31U
# DNA 1: CAATCTGAATTCCGGTCTCCC
# DNA 2: TGGTGGCTACGACGGGATT
# B22: AAGUGAA (DNA:RNA)
# RNA: B1 RNA with G26A, A27G, C28U, U29G, C31A
# DNA 1: CAATCTGAATTCCGGTCTCCC
# DNA 2: TGGTGGCTACGACGGGATT
# B23: GAGAGCC (DNA:RNA)
# RNA: B4 RNA with C25G, C26A, C27G, U30C, G31C
# DNA 1: CAATCTGAATTCCGGTCTCCC
# DNA 2: TGGTGGCTACGACGGGATT
# B24: UGCUCCG (DNA:RNA)
# RNA: B4 RNA with C25U, C26G, A28U, G29C, U30C
# DNA 1: CAATCTGAATTCCGGTCTCCC
# DNA 2: TGGTGGCTACGACGGGATT
# B25: CUGCUAG (DNA:RNA)
# RNA: B1 RNA with A25C, G26U, A27G, C31G
# DNA 1: CAATCTGAATTCCGGTCTCCC
# DNA 2: TGGTGGCTACGACGGGATT
# B26: GCGCCAU (DNA:RNA)
# RNA: B1 RNA with A25G, G26C, A27G, U29C, C31U
# DNA 1: CAATCTGAATTCCGGTCTCCC
# DNA 2: TGGTGGCTACGACGGGATT
# B27: UCUCAAU (DNA:RNA)
# RNA: B1 RNA with A25U, G26C, A27U, U29A, C31U
# DNA 1: CAATCTGAATTCCGGTCTCCC
# DNA 2: TGGTGGCTACGACGGGATT
# B28: CCAGGCA (DNA:RNA)
# RNA: B4 RNA with C27A, A28G, U30C, G31A
# DNA 1: CAATCTGAATTCCGGTCTCCC
# DNA 2: TGGTGGCTACGACGGGATT
# B29: UACAAGC (DNA:RNA)
# RNA: B4 RNA with C25U, C26A, G29A, U30G, G31C
# DNA 1: CAATCTGAATTCCGGTCTCCC
# DNA 2: TGGTGGCTACGACGGGATT
# B30: GCGGGUC (DNA:RNA)
# RNA: B4 RNA with C25G, C27G, A28G, G31C
# DNA 1: CAATCTGAATTCCGGTCTCCC
# DNA 2: TGGTGGCTACGACGGGATT
# B31: AUUACAA (DNA:RNA)
# RNA: B1 RNA with G26U, A27U, C28A, U29C, C31A
# DNA 1: CAATCTGAATTCCGGTCTCCC
# DNA 2: TGGTGGCTACGACGGGATT
# Molecular target: T1, RBFOX1 RRM RbFoxmut (Fox-RRM*) (Homo sapiens, UniProt Q9NWB1 109-208, R118D;E147R;N151S;E152T)
# T1 sequence: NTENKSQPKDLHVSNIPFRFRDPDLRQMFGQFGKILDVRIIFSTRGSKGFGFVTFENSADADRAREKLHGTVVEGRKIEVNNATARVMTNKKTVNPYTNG
# Experiment: EMSA; HiTS-Eq, 1 nM pool, 10 min; buffer printed only for the single-RNA assays: 10 mM Tris pH 7.5, 150 mM NaCl, 3.4 mM EDTA, 0.001% NP-40, 30 C
# Conditions: tags: His6 N-terminal (pET28a); label: 5' 32P
# Outline: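 Purified RbFox RRM (wild type or mutant) was equilibrated for 10 min in 50 µL with 1 nM of a 5′-radiolabelled pool of RNA with 7 randomized nucleotides, its flanks annealed to DNA oligonucleotides, across increasing protein concentrations. Free RNA was separated by 8% native PAGE, excised, reverse-transcribed, PCR-barcoded and sequenced on an Illumina HiSeq 2500. Relative association constants came from read-count changes of each variant against the control reaction, normalised to the cognate motif.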
row,Binder,binding signal
1,B1,0.0497 KA relative to UGCAUGU
2,B2,0.124 KA relative to UGCAUGU
3,B3,0.132 KA relative to UGCAUGU
4,B4,0.142 KA relative to UGCAUGU
5,B5,0.153 KA relative to UGCAUGU
6,B6,0.0818 KA relative to UGCAUGU
7,B7,0.0788 KA relative to UGCAUGU
8,B8,0.0953 KA relative to UGCAUGU
9,B9,0.124 KA relative to UGCAUGU
10,B10,0.154 KA relative to UGCAUGU
11,B11,0.117 KA relative to UGCAUGU
12,B12,0.137 KA relative to UGCAUGU
13,B13,0.102 KA relative to UGCAUGU
14,B14,0.125 KA relative to UGCAUGU
15,B15,1.34 KA relative to UGCAUGU
16,B16,0.0857 KA relative to UGCAUGU

row,Binder,binding signal
1,B17,0.0784 KA relative to UGCAUGU
2,B18,0.0993 KA relative to UGCAUGU
3,B19,0.0578 KA relative to UGCAUGU
4,B20,0.0732 KA relative to UGCAUGU
5,B21,0.0725 KA relative to UGCAUGU
6,B22,0.11 KA relative to UGCAUGU
7,B23,0.11 KA relative to UGCAUGU
8,B24,0.0695 KA relative to UGCAUGU
9,B25,0.139 KA relative to UGCAUGU
10,B26,0.0811 KA relative to UGCAUGU
11,B27,0.0562 KA relative to UGCAUGU
12,B28,0.152 KA relative to UGCAUGU
13,B29,0.0384 KA relative to UGCAUGU
14,B30,0.191 KA relative to UGCAUGU
15,B31,0.056 KA relative to UGCAUGU
